Hit rate of the full screen: of about 310,000 compounds, about 2,200 (0.71%) showed an effect of 50% or more. The effect is printed as a negative number. The list shows a part of the results.
Each molecule was assayed against human ether-à-go-go-related gene (hERG) potassium channel (human, UniProt Q12809) (assay: primary screen, population patch clamp on CHO cells stably expressing hERG).
human ether-à-go-go-related gene (hERG) potassium channel, sequence (Q12809 whole entry, looked up): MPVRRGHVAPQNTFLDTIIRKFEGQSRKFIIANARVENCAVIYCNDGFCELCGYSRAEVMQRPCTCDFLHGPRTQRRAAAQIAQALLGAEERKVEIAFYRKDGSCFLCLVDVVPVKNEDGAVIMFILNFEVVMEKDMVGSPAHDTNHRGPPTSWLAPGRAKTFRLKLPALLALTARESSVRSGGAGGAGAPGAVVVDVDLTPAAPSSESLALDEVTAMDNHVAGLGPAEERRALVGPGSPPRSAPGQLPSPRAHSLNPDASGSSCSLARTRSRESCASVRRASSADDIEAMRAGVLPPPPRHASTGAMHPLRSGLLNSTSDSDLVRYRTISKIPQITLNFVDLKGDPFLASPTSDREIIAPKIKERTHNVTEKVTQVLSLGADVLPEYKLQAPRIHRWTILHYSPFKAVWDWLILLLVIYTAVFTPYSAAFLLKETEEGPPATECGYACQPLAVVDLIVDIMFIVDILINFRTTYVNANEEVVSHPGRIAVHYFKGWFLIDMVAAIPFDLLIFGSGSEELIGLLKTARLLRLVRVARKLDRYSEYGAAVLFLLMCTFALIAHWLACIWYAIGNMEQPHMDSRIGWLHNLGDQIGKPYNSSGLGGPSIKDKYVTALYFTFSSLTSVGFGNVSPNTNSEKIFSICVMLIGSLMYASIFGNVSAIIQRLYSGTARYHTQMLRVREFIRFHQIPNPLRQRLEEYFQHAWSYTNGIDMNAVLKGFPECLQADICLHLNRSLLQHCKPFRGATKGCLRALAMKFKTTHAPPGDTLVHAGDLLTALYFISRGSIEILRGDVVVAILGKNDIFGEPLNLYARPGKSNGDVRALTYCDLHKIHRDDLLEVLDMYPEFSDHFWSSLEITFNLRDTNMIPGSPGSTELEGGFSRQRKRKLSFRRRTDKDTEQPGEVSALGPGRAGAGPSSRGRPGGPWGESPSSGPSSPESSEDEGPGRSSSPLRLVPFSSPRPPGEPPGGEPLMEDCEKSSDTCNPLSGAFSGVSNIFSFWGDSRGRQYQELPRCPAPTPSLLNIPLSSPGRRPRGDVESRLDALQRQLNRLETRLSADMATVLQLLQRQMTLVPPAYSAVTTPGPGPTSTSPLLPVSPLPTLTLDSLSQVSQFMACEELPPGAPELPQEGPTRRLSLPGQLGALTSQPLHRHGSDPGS

SMILES | hERG current change (%, negative = inhibition) at 1uM
NS(=O)(=O)c1ccc(NC(=S)N2CCN(C(=O)C3CCCO3)CC2)cc1 (stereo not shown) | 2.22%
CSCC[C@H](NC(=O)N1CCn2c1nc1ccccc12)C(=O)NCc1ccc(C)cc1 | 7.77%
Brc1ccsc1/C=N/Nc1ccccc1 | 17.5%
COc1cccc(-c2ccc3c(N)c(C(=O)NC4CC4)sc3n2)c1 | 18.6%
COc1cc(/C=C/C(=O)O)ccc1OCc1cnc(Cl)s1 | 13.5%
O=C(NC1CCCCCC1)C(=S)N1CCCC1 | 11.1%
Cc1cc(Br)cc2c(C(=O)Nc3c(C)n(C)n(-c4ccccc4)c3=O)cc(-c3cccs3)nc12 | 6.96%
O=[N+]([O-])c1ccc(O)c(-c2nn[nH]n2)c1 | 1.26%
Cc1c(N=Cc2cc3c(cc2[N+](=O)[O-])OCO3)cccc1[N+](=O)[O-] | 8.46%
O=c1c2c([nH]c3ccc(Br)cc13)CCCC2 | -0.599%
O=C(Nc1ccc(S(=O)(=O)Nc2ncccn2)cc1)c1ccc(S(=O)(=O)N2CCCC2)cc1 | 14.4%
O=C(COC(=O)c1cc([N+](=O)[O-])ccc1NCCO)Nc1ccc2c(c1)OCO2 | 3.51%
O=S(=O)(Nc1ccc(Cl)cn1)c1ccc(F)cc1 | 7.62%
CCOCCCNc1ccc(N2C(=O)C3CCCCC3C2=O)cc1[N+](=O)[O-] (stereo not shown) | 6.14%
O=S(=O)(Cc1ccccc1)NCC1CCCN(Cc2ccc(F)c(F)c2)C1 (stereo not shown) | -3.01%
CC1(C)C(C(=O)NCc2ccco2)C1(C)C | 6.33%
C[C@@H]1C[C@H]2[C@@H]3C[C@H](F)C4=CC(=O)C(Cl)=C[C@]4(C)[C@@]3(F)[C@@H](O)C[C@]2(C)[C@@]1(O)C(=O)CO | 1.82%
CC(=O)Nc1ccc(-c2nn[nH]n2)cc1 | 1.91%
CC(C)(C)C(=O)Nc1nnc(SCC(=O)Nc2ccc3c(c2)OCO3)s1 | 10.9%
CN(Cc1ccccc1)Cc1nc2c(c(=O)n(C)c(=O)n2C)n1CCc1ccccc1 | -8.44%
Cc1cc(NS(=O)(=O)c2ccc(NC(=O)Cc3ccc([N+](=O)[O-])cc3)cc2)no1 | 9.91%
COc1cccc(-n2c(CN3CCN(c4ccccn4)CC3)nc3ccc([N+](=O)[O-])cc3c2=O)c1 | -3.03%
CCn1c(SCC(=O)NC2CC2)nnc1-c1ccc(OC)cc1 | 20.5%
O=C(NCCCN1CCOCC1)c1ccc(S(=O)(=O)Nc2ccccc2)cc1 | 25.3%
CN1/C(=C\C(=O)COC(=O)c2ccc(O)cc2)C(C)(C)c2ccccc21 | 21.4%
CN1CCC(O)(c2ccccc2)C2CCCC21 (stereo not shown) | 10.2%
COc1ccc(NC(=O)Cn2nnc(C(=O)NCc3cccs3)c2N)c(OC)c1 | 13.2%
COc1ccc(S(=O)(=O)NCc2ccc(C(=O)N3CCN(c4ccccn4)CC3)cc2)cc1 | 0.714%

SMILES | hERG current change (%, negative = inhibition) at 1uM
Nc1nnc(SCC(=O)NN2C(=O)NC3(CCCCC3)C2=O)s1 | 12.5%
Cc1cccc(NC(=O)CNC(=O)CN2C(=O)NC3(CCCCC3C)C2=O)c1C (stereo not shown) | 15.4%
COc1ccccc1N1CCN(C(=O)c2cccc(S(=O)(=O)N3CCCCCC3)c2)CC1 | -18.5%
Cc1ccc(Cl)cc1N1C(=O)CC(Sc2ncccn2)C1=O (stereo not shown) | 15.5%
CC(C)c1ccc(S(=O)(=O)N2CCN(C(C)C(=O)N3CCCC3)CC2)cc1 (stereo not shown) | 5.12%
CC1CC(C)CN(C(=O)c2cc(-c3ccncc3)nc3ccccc23)C1 (stereo not shown) | -1.84%
O=C(Nc1ccnn1C1CCN(C(=O)Cc2ccccc2F)CC1)C1CC1 | 14.3%
CC(C)C(=O)N(Cc1cc2ccccc2[nH]c1=O)C(C)C | -4.32%
COc1cccc(C(=O)NCCCNC(=O)c2cccc(OC)c2)c1 | 12.4%
CC(C)CCNC(=O)CNC(=O)c1cccs1 | 9.83%
O=C(O)C1(NS(=O)(=O)c2ccc(F)c(Cl)c2)CCCCC1 | 14.2%
Nc1nc(NC(=O)CCCC(=O)O)nn1-c1ccccc1 | 8.76%
Cc1nn(-c2ccccc2)c2c1C(O)n1c(nc3ccccc31)S2 (stereo not shown) | 8.37%
COc1cc(/C=N/NC(=O)C(N)=O)ccc1OCC(=O)N1C(C)CCCC1C (stereo not shown) | 5.24%
O=C(c1ccco1)N(Cc1cc2ccccc2[nH]c1=O)C1CCCCC1 | 22%
COC(=O)c1cccc(N(CC(=O)NC2CCCCC2)C(=O)CNC(=O)c2cccs2)c1 | 13.3%
COc1ccccc1NS(=O)(=O)c1cc(NC(=O)CNC(=O)c2ccc(C)s2)ccc1Cl | 10.2%
CCCCc1cc(=O)oc2c(C)c(OCC(=O)NCC3CCC(C(=O)O)CC3)ccc12 (stereo not shown) | 11.3%
Cc1cc(C(=O)COC(=O)c2n[nH]c(=O)c3ccccc23)c(C)n1C(C)C | 4.81%
CN(C)C(=O)c1ccc(N/C=C(\C=O)c2nc3ccccc3o2)cc1 | 2.79%
CCCc1cc(=O)n2[nH]c(NCc3c(F)cccc3Cl)nc2n1 | 12.7%
O=c1nc2n(c3ccc(Br)cc13)CCS2 | 9.96%
Cc1cccc(C)c1OCC(=O)OC/C(O)=C(\C#N)c1nc2ccccc2[nH]1 | 11.7%
O=C(c1cc(-c2ccccc2)nc2ccccc12)N1CCCc2ccccc21 | -0.0772%
COC(=O)c1ccccc1NC(=O)CSc1nnc(C(CO)NC(=O)c2ccccc2Cl)n1C (stereo not shown) | 9.46%
COc1ccc2[nH]c3c(c2c1)CCN1C(=O)N([C@@H](C)C(=O)NCc2ccccc2)C(=O)[C@]31C | 2.82%
CN(C(=O)Cn1cc(C#N)c2ccccc21)c1ccccc1 | -0.978%

From paper PMC4336329 (PLoS ONE, 2015)
